Laboratory results: PubChem BioAssay AID624296 (National Center for Advancing Translational Sciences (NCATS), 2012)
About 9,900 (2.8%) of roughly 350,000 compounds were called active. The inconclusive results got no clear call from the source; some entries with a clear call stand among them for comparison. Calls follow the shape of the dose curve; as a rule, active = well fitted activation curve with a large enough effect; inconclusive = small, poorly fitted or top-dose-only effect; inactive = no such curve, though single readings can be large or run the other way. Potencies of inconclusive entries are left out as doubtful fits.

Assay: A quantitative high throughput screen for small molecules that induce DNA re-replication in MCF 10a normal breast cells. Also: nearly all actives have a fitted effect of over 50% in size.
Settings: MCF 10A DNA re-replication, Hoechst nuclear intensity, 48 h; series mostly up to 46.1 µM
Potency is read from the fitted curve at half-maximal effect; tags tell the direction and shape of the fitted curve.

| Structure (SMILES) | Potency |
| --- | --- |
| COc1ccc(C(=O)C=Cc2cccs2)c(O)c1 | inconclusive [activator, single point] |
| O=C(CSc1nnc(-c2ccccn2)n1-c1ccc(Cl)cc1)Nc1ccc2c(c1)OCO2 | inactive |
| CC(=O)Nc1c2c3c(cccc3n(C)c1=O)C(=O)c1ccccc1-2 | inactive |
| O=C(NNC(=S)Nc1ccccc1)NNC(=S)Nc1ccccc1 | inactive |
| Cc1cc(NC(=O)CSc2nnnn2-c2cc(Cl)ccc2C)no1 | inconclusive [activator, single point] |
| Cn1c(NC(=O)C[n+]2cc(-c3ccc(F)cc3)n3c2CCC3)cc(=O)n(C)c1=O | inconclusive [activator, partial curve] |
| CC(CNCCCn1cnc2c(OCc3ccccc3)ncnc21)c1ccccc1 (stereo not drawn) | inconclusive [activator, single point] |
| COc1ccc2cnn(CCOc3cc(C)ccc3C(C)C)c(=O)c2c1OC | inconclusive [activator, single point] |
| CCOC(=O)Cn1c(=O)oc2cc(S(=O)(=O)N(C)c3ccc(OC)cc3)ccc21 | inactive |
| CN(C)Cc1ccc(CNC(=O)COc2ccc3ccccc3c2)cc1 | inconclusive [activator, single point] |
| CC(=O)C1=C(O)C(=O)N(c2cc(C(C)(C)C)on2)C1c1ccc(Br)cc1 (stereo not drawn) | inconclusive [activator, partial curve, poor fit] |
| COc1ccc(OC)c(NC(=O)COC(=O)c2cc3c(s2)CCC3)c1 | inconclusive [activator, single point] |
| CN(CC(=O)Nc1c(Cl)cccc1Cl)C(=O)CCc1nc2sc3c(c2c(=O)[nH]1)CCCC3 | inconclusive [activator, single point] |
| CC(=O)c1c(C)nn(CC(=O)NC2CCCN(Cc3ccc(CC(C)C)cc3)C2)c1C (stereo not drawn) | inconclusive [activator, partial curve, poor fit] |
| O=C1Cc2ccccc2N1c1ccccc1 | inconclusive [activator, single point] |
| CC1=NNC(=O)C1CCC(=O)N/N=C/c1ccc(Cl)cc1 (stereo not drawn) | inconclusive [activator, single point] |
| Cc1ccc(C(C)C)c(OCCOCCN2CCNCC2)c1 | inconclusive [activator, partial curve] |
| Cc1ccc(-c2cc(C(=O)NCCc3ccc(S(N)(=O)=O)cc3)c3ccccc3n2)cc1 | inconclusive [activator, single point] |
